± gives the standard deviation of the averaged measurements. Over roughly 33,000 sequences, “E-score (dimensionless, -0.5 to 0.5)” has its median near -0.049; the highest 2% begin near 0.37. Some of the results follow.
These sequences were tested on T1, PmTbr T-box DNA-binding domain (GST fusion) (assay: PBM E-score of 8-mer (E-score (dimensionless, -0.5 to 0.5)); Tbr is Tbrain of the sea star Patiria miniata (Pm) or the sea urchin Strongylocentrotus purpuratus (Sp); higher = stronger binding preference; most listed sequences are background and not binding sites). Details: the construct has about 5 more residues each side.
T1 sequence: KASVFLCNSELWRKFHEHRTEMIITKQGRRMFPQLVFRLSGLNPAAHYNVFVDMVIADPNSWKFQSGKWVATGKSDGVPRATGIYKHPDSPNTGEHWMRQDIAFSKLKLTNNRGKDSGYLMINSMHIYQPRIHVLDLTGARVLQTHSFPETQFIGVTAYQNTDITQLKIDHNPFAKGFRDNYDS
Procedure, shortened: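 Universal Agilent oligonucleotide arrays, made double-stranded by primer extension, were incubated with 200 nM GST-fused Tbr T-box DNA-binding domain in PBS (pH 7.5). The protein was expressed in BL21 E. coli at 20 °C and purified by glutathione affinity chromatography. After scanning and quantification, the Universal PBM Analysis Suite assigned an enrichment E-score to each ungapped 8-mer, averaged over duplicate arrays.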

Row | Sequence | PBM E-score of 8-mer
1 | AACGAATC | -0.0499 ± 0.0029
2 | AGTCCCAT | -0.282 ± 0.038
3 | TCTGTCCA | -0.185 ± 0.028
4 | GAACCCTA | -0.0769 ± 0.011
5 | AGAGTTTC | -0.192 ± 0.11
6 | CAGGAGTA | -0.236 ± 0.022
7 | CGGATTTC | -0.0586 ± 0.028
8 | AAATCTCG | -0.0345 ± 0.022
9 | TCAGGGGA | -0.197 ± 0.022
10 | CCCCGCAA | -0.0622 ± 0.043
11 | CCACCTTC | 0.31 ± 0.02
12 | CAGTGAGG | -0.123 ± 0.082
13 | GGTTCGAA | -0.0605 ± 0.056
14 | CCTCTCAA | 0.0677 ± 0.046
15 | ACAAGCAG | -0.142 ± 0.057
16 | CACTTGCG | 0.376 ± 0.019
17 | ATGTGCGC | 0.138 ± 0.0009
18 | AGGCGTAG | 0.0703 ± 0.0097
19 | CGCTCGGC | -0.148 ± 0.02
20 | CCCGACCA | -0.0729 ± 0.075
21 | CAGTGGAG | -0.068 ± 0.012
22 | CGGCTTCA | -0.0682 ± 0.033
23 | GTCCGCAC | 0.246 ± 0.0062
24 | CAATTGCA | 0.123 ± 0.017
25 | GATGAGCA | -0.0632 ± 0.0015

Row | Sequence | PBM E-score of 8-mer
26 | ACGGACGT | -0.113 ± 0.023
27 | AATAGAAA | -0.0863 ± 0.06
28 | CACAAAGC | 0.0584 ± 0.0037
29 | GTTGATTA | 0.0482 ± 0.0031
30 | CAGCACAA | -0.132 ± 0.02
31 | ACGGGGCT | -0.0217 ± 0.036
32 | CTAATCAG | -0.0291 ± 0.027
33 | TATCTACA | -0.0338 ± 0.029
34 | CCGCCATC | -0.0994 ± 0.028
35 | GAGGTAAC | -0.107 ± 0.075
36 | ACAAGAAC | -0.0713 ± 0.045
37 | CGCGGCCA | -0.0302 ± 0.045
38 | AGAACTTG | -0.0645 ± 0.0036
39 | AATGGCTG | -0.207 ± 0.038
40 | GTAGCTTA | -0.103 ± 0.0071
41 | CATCCTCC | -0.172 ± 0.04
42 | ATTACTCG | -0.0674 ± 0.0033
43 | ATACTGTG | 0.0781 ± 0.053
44 | ATCATTAC | -0.136 ± 0.043
45 | CAACCCTA | 0.0976 ± 0.048
46 | ATAGTCGC | 0.167 ± 0.037
47 | ATGTGAGA | 0.429 ± 0.0081
48 | CGTGGCTC | -0.141 ± 0.022
49 | CCGCATTC | -0.019 ± 0.026
50 | ACCACTCA | 0.131 ± 0.049

Row | Sequence | PBM E-score of 8-mer
51 | CCTCGCCC | -0.0372 ± 0.055
52 | AAGCCAGC | -0.236 ± 0.021
53 | CCGGCCTA | -0.0303 ± 0.026
54 | CTTCTATC | -0.198 ± 0.025
55 | GCACATGC | 0.159 ± 0.0039
56 | GATTAGAC | -0.0447 ± 0.044
57 | CCGGATTA | -0.087 ± 0.0022
58 | AGCGGACC | -0.0833 ± 0.074
59 | GGTGCTAC | 0.434 ± 0.0055
60 | ATACTCAC | 0.0718 ± 0.091
61 | CGTACATC | -0.116 ± 0.063
62 | ATGAGGGG | -0.0806 ± 0.096
63 | GAGTAAGC | -0.0647 ± 0.012
64 | CATAAACG | -0.149 ± 0.043
65 | ACACATCG | 0.382 ± 0.017
66 | CTGTCGCA | 0.224 ± 0.064
67 | ATAACGGC | -0.0165 ± 0.059
68 | ATTGCTTA | -0.151 ± 0.11
69 | ACCAGAAT | -0.0127 ± 0.054
70 | CAGCTTAG | -0.0623 ± 0.0095
71 | ATTTGCAC | 0.289 ± 0.054
72 | GGCGTCAA | 0.4094 ± 0.001
73 | ATTTTGTG | 0.133 ± 0.025
74 | ACCCGCAT | 0.062 ± 0.016
75 | CCACAGCG | -0.0231 ± 0.073

Row | Sequence | PBM E-score of 8-mer
76 | GCCCGCCA | 0.0456 ± 0.056
77 | CCTTGATC | -0.0826 ± 0.012
78 | CGCCCCAG | -0.0528 ± 0.021
79 | ACATGAAG | 0.121 ± 0.0073
80 | CACAATGG | -0.107 ± 0.015
81 | CATCATTA | -0.192 ± 0.049
82 | GAGCATGC | -0.248 ± 0.00061
83 | AGCGGCGG | 0.00717 ± 0.0067
84 | AGCATATA | -0.237 ± 0.031
85 | TTATATAA | -0.0846 ± 0.015
86 | CTCTACAA | 0.142 ± 0.055
87 | GGGTCAGA | -0.162 ± 0.057
88 | AGATACAA | -0.122 ± 0.044
89 | CACCGAGA | 0.0151 ± 0.0083
90 | CCAACTGC | -0.104 ± 0.011
91 | ACAGCGGA | -0.0398 ± 0.043
92 | AAGCGGGA | -0.182 ± 0.029
93 | AACCGCAC | 0.125 ± 0.064
94 | ATTGACAC | 0.412 ± 0.0065
95 | AAATCTGC | 0.138 ± 0.061
96 | GCTCGCCC | -0.213 ± 0.052
97 | CGGAAGGA | -0.209 ± 0.012
98 | ACTGATAC | 0.13 ± 0.0021
99 | ATGGTTCA | -0.00063 ± 0.045
100 | GATAACTA | 0.0165 ± 0.034

Row | Sequence | PBM E-score of 8-mer
101 | CTAGCATA | -0.0116 ± 0.041
102 | AACCCGTA | -0.199 ± 0.011
103 | CTGAGCGC | -0.0658 ± 0.099
104 | AAGGAGTC | -0.147 ± 0.012
105 | AAATGGTA | -0.00884 ± 0.042
106 | CTTGATCC | -0.0113 ± 0.059
107 | AAAATGCC | -0.19 ± 0.021
108 | CCTTAGAA | -0.23 ± 0.033
109 | GTTCACAA | 0.3167 ± 0.0026
110 | GCTGAGAC | -0.0471 ± 0.091
111 | GATGCAAA | -0.0496 ± 0.062
112 | CGAGCTAA | 0.216 ± 0.018
113 | GCTAATGA | 0.0319 ± 0.089
114 | AGGCCTAT | -0.23 ± 0.082
115 | GCTGGAGA | -0.144 ± 0.034
116 | AACATCCT | -0.0822 ± 0.039
117 | GATGCCGA | -0.0789 ± 0.041
118 | GGCGTGAC | 0.386 ± 0.017
119 | ACACTTGC | 0.407 ± 0.013
120 | GTATAACA | 0.0166 ± 0.071
121 | AGACGGCT | -0.0381 ± 0.046
122 | GCCGGGTA | 0.0619 ± 0.041
123 | CGTCCGGC | -0.224 ± 0.068
124 | AAACCGGT | -0.0406 ± 0.022
125 | CCGGTTCA | -0.0841 ± 0.025

Row | Sequence | PBM E-score of 8-mer
126 | GCGGTCCA | -0.043 ± 0.019
127 | GAGGTCAA | -0.295 ± 0.0062
128 | GAAGAGGC | -0.0489 ± 0.055
129 | ATCCAACC | -0.0271 ± 0.073
130 | AGCGTAGG | -0.0926 ± 0.0022
131 | CATCTAGA | -0.275 ± 0.013
132 | ACTTTTAG | 0.0831 ± 0.084
133 | TGTTAACA | 0.38 ± 0.0039
134 | ACGTGTCG | 0.385 ± 0.022
135 | GATTCGGA | -0.1891 ± 0.0013
136 | GCTAGGAC | -0.0839 ± 0.039
137 | TCCCTCAA | -0.203 ± 0.016
138 | GGATATAA | -0.194 ± 0.03
139 | CCTACCCA | -0.133 ± 0.026
140 | ATGGTCGC | 0.066 ± 0.016
141 | CATTGGCC | -0.0667 ± 0.0014
142 | ATACTCAG | -0.225 ± 0.015
143 | CCATGATA | -0.174 ± 0.047
144 | AGAGACCT | -0.27 ± 0.031
145 | GTGCACCA | -0.1545 ± 0.0015
146 | ACATAAGC | -0.062 ± 0.015
147 | ACACACAT | 0.288 ± 0.013
148 | GACTCTCA | 0.0229 ± 0.0083
149 | GCCTCGGA | -0.0576 ± 0.022
150 | CAGTTGAG | 0.0425 ± 0.022

Row | Sequence | PBM E-score of 8-mer
151 | ACACAGCC | -0.173 ± 0.01
152 | GCTGCGAA | 0.296 ± 0.0077
153 | CGACACAA | 0.212 ± 0.064
154 | AGATCACT | 0.0336 ± 0.011
155 | GGTTCTTA | -0.0403 ± 0.11
156 | TACGTCTA | -0.309 ± 0.026
157 | GGCCGGGA | -0.284 ± 0.02
158 | CAGATAGC | 0.111 ± 0.0016
159 | AATCACAT | 0.182 ± 0.076
160 | AAGTACTT | -0.00166 ± 0.016
161 | AGGTCGTC | -0.0167 ± 0.06
162 | AAGCGTGG | 0.0213 ± 0.089
163 | AGAACGCT | -0.0145 ± 0.021
164 | AAGAAATT | -0.116 ± 0.13
165 | GACCTACA | -0.125 ± 0.019
166 | CCAATACG | -0.0971 ± 0.048
167 | GACACGGA | 0.118 ± 0.012
168 | TTCCAGAA | -0.234 ± 0.033
169 | CTTACCCA | -0.0254 ± 0.00088
170 | GAGATACA | -0.0338 ± 0.0033
171 | AGGATCAG | -0.201 ± 0.022
172 | CTGCAATA | -0.204 ± 0.032
